# Source: the RNAGym collection of RNA variant scans (doi:10.1093/nar/gkz1192)
# Read counts are not given, so values of variants with three or more changes are uncertain.
# B1: CPEB3 Ribozyme (parent)
# chain: UAACAGGGGGCCACAGCAGAAGCGUUCACGUCGCAGCCCCUGUCAGAUUCUGGUGAAUCUGCGAAUUCUGCUGUAUAUCUC
# Variants of: B1
# Experiment: self-cleavage, relative activity (ratio to wild type); higher = more cleavage; in vitro, sequencing
# How it was run: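 CPEB3 self-cleaving ribozyme mutant libraries were made by rounds of error-prone PCR, barcoded, and transcribed in vitro with T7 RNA polymerase for 5 hours at 37°C. Cleavage occurred during transcription and a 15 min DNase I step before EDTA stop. RNAs were reverse transcribed with template switching and Illumina-sequenced, with DNA sequencing mapping barcodes to variants. Relative activity is the variant's cleaved/total read fraction divided by wild type's (minimum 5 reads), averaged across three batches.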
row,Variant,self-cleavage
1,UAACAGGGGGCUACAGCAGAAGCGUACACGUCGCAGCCCCUGUCAGAUUCUGGUGAAUCUACGAAUUCUGCUGUAUAUCUC [C12U U26A G61A],0.87
2,UAACAGGGGGCUACAGCAGAAGCGUUCGCGUCGCAGCCCCUGUCAGAUUCUGAUGAAUCUGCGAAUUCCGCCGUAUAUCUC [C12U A28G G53A U69C U72C],0.31
3,UAACAGGGGGCUACAGCAGAAGCGUUCACGUCGCAGCCCCUGUCAGAUUCUGGUGAAUCUGCGAAUUCUGCUGUGUACCUC [C12U A75G U78C],1.25
4,UAACAGGGGGCCCCGGCAGAAGCGUUCACGUCGCAGACCCUGUCAGAUUCUGGUGAAUCUGCGAGUUCUGCUGCAUAUCUC [A13C A15G C37A A65G U74C],0.19
5,UAACAGGGGGCUACAGCAGAAGCGUUCACGUCGCAGCCCCUGUCAGAUUCUGGUGAAUCUGCGAACUCUGCCGUAUAUCUC [C12U U66C U72C],0.87
6,UAACAGGGGGCUACAGCGGAAGCGUUCACGUCGCAGCCCCUGUCAGAUUCUGGUGAAUCUGCGAAUUCUGCCGUAUAUCUC [C12U A18G U72C],0.94
7,UAACAGGGGGCUACAGCAGAAGCGCUCUCGUCGCAGCCCCAGUCAGAUUCAGGUGAAUCUGCGAAUUCUGCCGUAUAUCUC [C12U U25C A28U U41A U51A U72C],0.14
8,UAACAGGGGGCUACAGCAGUAGCGUUCACGUCGCAGCCUCUGUCAGAUUCUGGUGAAUCUGCGAAUUCUGCUGCAUAUCUC [C12U A20U C39U U74C],0.46
9,UAACAGGGGGCUACAGCAGAAGCGUUCACGUCGCAGCCCCCGUCAGAUUCUGGUGAAUCUGCGAACUCUGCCGGGUAUCUC [C12U U41C U66C U72C U74G A75G],0.94
10,UAACAGGGGGCUACAGCAGAAGCGUUCCCGUCGCAGCCCCUGUCAGAUUCAGGUGAAUCUGCGAAUUCUGCUGUAUAUCUC [C12U A28C U51A],0.82
11,UAACAGGGGGCUACAGCAGAAGCGCUCUCGUCGCAGCCCCUGUCAGAAUCUGGUGAAUCUGCGAAUUCUGCUGUAUAUCUC [C12U U25C A28U U48A],0.05
12,UAACAGGGGGCUACAGCAGAAGCGUUCACGUCGCAGCCCCUGUCAGAUUCAGGUGAAUCUGCGAAUUCUGCUGUAUAUCCC [C12U U51A U80C],1.2
13,UAACAGGGGGCUACAGCAGAAGCGUACACGUCGCAGCCCCUGUCAGAUUCAGGUGGAUUUGCGAAUUCUGCUGUAUAUCUC [C12U U26A U51A A56G C59U],0.42
14,UAACAGGGGGCUACAGCAGAAGCGUUCUCGACGCAGCCCCUGUCAGAUUCUGGUGAAUCUGCGAGUUCUGCUGUAUAUCUC [C12U A28U U31A A65G],0.28
15,UAACAGGGGGCUACAGCAGUAGCGUUCACGUCGCAGCCCCUGUCAGAUCCUGGUGAAUCUGCGAAUUCUGCUGUAUAUCCC [C12U A20U U49C U80C],0.07
16,UAACAGGGGGCUACAGCAGAAGCGUUCACGUCGCAGCCCCUGACAGAUUCUGGAGAAUCCGCGAAUUCUGCUGUAUAUCUC [C12U U43A U54A U60C],1.05
17,UAACAGGGGGCUACAGCAGAAGCGUUCACGUCGCAGCCCCCGUCGGUUUCUGGUGAAUCUGCGAAUUGUGCUGUAUAUCUC [C12U U41C A45G A47U C68G],0.15

row,Variant,self-cleavage
1,UAACAGGGGGCCCCGGCUGAAGCGUUCACGUCGCAGCCCCUGCCAGAUUCCGGUGAAUCUGCGAAUUCCGCUGUAUAUCUC [A13C A15G A18U U43C U51C U69C],0.09
2,UAACAGGGGGCUACAGCAGAAGCCUUCACGUCGCGGCCCCUGUCGGAUUCUGGUGAAUCUGCGAGUCCUGCUGUAUAUCUC [C12U G24C A35G A45G A65G U67C],0.12
3,UAACAGGGGGCCCCUGCAGAAGCGUUCACGUCGCAGCCCCUGUCAGAUUCUGGUGAAUCUGCGAGUUCUGCUGUAUAUCUC [A13C A15U A65G],0.33
4,UAACAGGGGGCUACAGCAGAAGCGUUCACGUCGCGGCCCCUGUCAGAUUCUGGUGAAUCUGCGUACUCUGCUGUAUAUCUC [C12U A35G A64U U66C],0.21
5,UAACAGGGGGCUACAGCAGAUGCGUUCACGUCGCAGCCCCUGUCAGACUCUGGUGAAUCUGCGAAUUCUGCUGUAUAUCCC [C12U A21U U48C U80C],0.1
6,UAACAGGGGGCUACAGCAGAAGCGUCCACGUCGCAGCCCCUGUCUGAUUCUGGUGAAUCUGCGAAUUCUGCUGUAUAUCCC [C12U U26C A45U U80C],0.4
7,UAACAGGGGGCCCCUGCAGAAGCGUUCACGUCGCAGCCCCUGUCAGAUCCUGGUGAAUCUGCGAAUUCUGCUGUAUGUCUC [A13C A15U U49C A77G],0.12
8,UAACAGGGGGCCCCAGCGGAAGCGUUCACGUCGCAGCCCCUGUCAGAUUCUGGUGAAUCUGCGAACUCUGCAGUAUAUCUC [A13C A18G U66C U72A],0.15
9,UAACAGGGGGCUACAGCGGAAGCGUACACGCCGCAGCCCCUGUCAGAUUCUGGUGAAUCUGCGAAUUCUGCUGUAUAUCUC [C12U A18G U26A U31C],0.13
10,UAACAGGGGGCUAUAGCAGAAGCGUUCACGACGCAGCCCCUGUCAGAUUCUGGUGAAUCUGCGAAUUCUGCUGUAUAUCUC [C12U C14U U31A],1.15
11,UAACAGGGGGCCCCAGCGGAAGCGCUCUCGUCGCAGACCCUGUCAGAUUCUGGUGAAUCAGCGAAUUCUGCUGUAUAUCUC [A13C A18G U25C A28U C37A U60A],0.07
12,UAACAGGGGGCUACAGCAGAAGCGUUCACGUCGCAGCCCCUGCCAGAUUCUGGUGGAUCUGCGAGUUCUGUUGUAUAUCUC [C12U U43C A56G A65G C71U],0.06
13,UAACAGGGGGCUACAGCAGAAGCGUUCACGUCGCAGCCCCUGACAGAUUCUGGUGAAUCAGCGAAUUCUGCUGUAUAUCUC [C12U U43A U60A],0.54
14,UAACAGGGGGCUACAGCAGAAGCGUUCACGUCGCAGCCCCUGUCAGAUUCUGGUGAGUCUGCGAAUUCUGCUGUAUAUCCC [C12U A57G U80C],1.16
15,UAACAGGGGGCUACAGCUGAGGCGUUCACGUCGCAGCCCCUGUCAGAUUCUGGUGAAUCUGCGAAUUCUGCUGUAUAUCUC [C12U A18U A21G],0.37
16,UAACAGGGGGCUACAGCAGAGGCGUCCACGUCGCAGCCCCUGUCAGAUUCUGGUGAAUCUGCGAAUUCUGCUGUAUAUCUC [C12U A21G U26C],0.43
17,UAACAGGGGGCUACAGCAGAAGCGUUCACGUCGCAGCCCCUGACAGACUCUGGUGAAUCUGCGAAUUCUGCUGUAUAUCUC [C12U U43A U48C],0.74
